# Data from the supplement of paper PMC12217912.
# The list shows a part of the results. Sequences were assembled here from the parent chain. Values near 0.05 are background.
# B1: TEV protease; numbered along this chain (parent)
# chain: MGESLFKGPRDYNPISSSICHLTNESDGHTTSLYGIGFGPFIITNKHLFRRNNGTLVVQSLHGVFKVKDTTTLQQHLVDGRDMIIIRMPKDFPPFPQKLKFREPQREERICLVTTNFQTKSMSSMVSDTSCTFPSGDGIFWKHWIQTKDGQCGSPLVSTRDGFIVGIHSASNFTNTNNYFTSVPKNFMELLTNQEAQQWVSGWRLNADSVLWGGHKVFMVKPEEPFQPVKEATQL
# Variants of: B1
# Assay: raw area under fraction-flipped curve 0-4 h after induction (AUC4h, not background-subtracted), DNA-recorder readout of cleavage of the substrate (dimensionless); higher = more cleavage of the substrate by the protease variant
# Conditions: temperature: 34 °C; time window: 0-4 h after rhamnose induction
# Description: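 In vivo DNA recorder in E. coli TOP10(DE3) ΔrhaA at 34 °C. Each TEVp single-site mutant (parent TEVp 0) is paired with a single-site variant of the 7-mer TEVs (canonical ENLYFQ|S). The substrate sits between flexible linkers in a Bxb1-sfGFP-TEVs-SsrA fusion, so cleavage stabilises Bxb1 and speeds flipping of a recombination array, read by NGS. The value is the raw area under the fraction-flipped curve over 0-4 h after rhamnose induction (AUC4h), with ≥20 reads per time point. It is not background-subtracted; inactive controls average about 0.047.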
# 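Further: Bxb1 expression induced with 0.2% (w/v) L-rhamnose at OD600 near 0.5, cultures sampled hourly, flipped fraction per protease–substrate barcode pair counted by paired-end Illumina sequencing.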
Variant,area with substrate EALYFQS,area with substrate ECLYFQS,area with substrate EELYFQS,area with substrate EHLYFQS,area with substrate EILYFQS,area with substrate EKLYFQS,area with substrate ELLYFQS,area with substrate EMLYFQS,area with substrate EQLYFQS,area with substrate ERLYFQS,area with substrate EWLYFQS,area with substrate EDLYFQS,area with substrate EPLYFQS,area with substrate ESLYFQS,area with substrate ETLYFQS,area with substrate EVLYFQS,area with substrate EGLYFQS,area with substrate EYLYFQS,area with substrate EFLYFQS
H47D,0.0392,0.0685,0.0572,0.0709,0.0548,0.0574,0.0696,0.0503,0.064,0.0644,0.0743,,,,,,,,
H47K,0.0583,0.0591,0.0574,0.0617,0.0868,0.0423,,0.0422,0.0489,0.0558,,0.0544,0.0616,0.0522,0.05,0.058,,,
H47F,0.047,0.0616,0.0498,,0.056,0.0519,,0.0443,0.0672,0.0579,,0.0597,0.0578,0.06,0.0558,0.0581,0.0635,0.0446,
F49G,0.0548,0.0462,0.0567,0.0712,0.0616,0.0621,,0.0476,0.059,0.0561,0.0618,0.0577,0.0589,0.0547,,0.0493,0.05,,
T44W,0.118,0.0468,0.0458,0.0114,0.0438,0.0496,0.0357,,0.0421,0.043,0.0429,0.0513,0.0591,0.0465,0.0432,0.047,0.039,0.0295,
T44D,0.0292,0.0463,0.0472,0.0465,0.0441,0.0485,,0.0364,0.0423,0.0559,0.0423,,0.0414,0.0426,0.0463,0.0494,0.0435,,0.049
I36R,0.0445,0.0437,0.0435,,0.0474,0.0423,0.0406,0.0597,0.0468,0.0471,0.0604,,0.0442,0.0582,0.0375,0.0447,,,
I36V,0.122,0.106,0.137,0.164,0.112,0.107,0.0874,,0.123,0.122,0.0959,0.108,0.0981,0.0904,,0.0986,,0.106,
I36E,0.0316,0.0544,0.0336,0.036,0.0352,0.0499,,0.0397,0.0519,0.0495,0.042,,0.0472,0.0502,,0.0407,0.048,0.0557,0.0401
I36A,0.0817,0.0658,0.0819,0.0791,0.0677,0.0776,0.0703,0.0837,0.063,0.0674,,0.0914,0.0863,0.0795,,0.0623,0.0779,,
I36D,0.0404,0.0418,0.0264,,0.0376,,0.05,0.0279,0.0508,0.0502,0.0344,0.0427,0.0456,0.0428,0.0478,0.0398,0.0431,0.056,
T31W,0.138,0.098,,0.101,0.094,0.114,0.084,0.0831,0.111,0.0796,0.076,0.169,0.101,0.0915,,0.108,,0.1,
T31F,0.0996,,,0.0542,0.104,0.115,,0.0995,0.0809,0.0935,,,0.0975,0.107,0.11,0.0893,0.0733,0.0945,0.0701
G37P,0.0568,0.0401,0.0617,0.0549,0.0499,0.0642,0.0537,0.0615,0.0605,,,,0.0233,0.0518,,,0.156,,0.0529
L33P,0.0377,0.0538,,0.0368,0.0394,,0.0569,0.0416,0.04,0.0313,0.0481,0.0528,,0.0492,0.0511,0.0491,0.0518,0.0565,
I42Y,0.0592,0.0468,0.0509,0.004,0.0507,0.0578,,0.0549,0.0572,0.0357,0.056,0.0629,,0.0524,0.0463,0.0517,0.059,0.0487,
I42C,0.101,0.0903,0.106,0.102,0.0682,0.0892,0.0946,0.0955,0.115,0.0852,0.0885,0.0965,0.0939,0.0908,0.0803,0.0872,0.0608,0.0969,
T30F,0.0958,0.0968,,0.0966,0.0874,,0.101,0.11,0.121,0.0989,,0.135,0.107,0.105,,0.101,0.0944,,
N45I,0.068,0.0533,0.0588,0.0625,0.055,0.0441,0.0555,,0.064,0.0627,,,0.0539,0.0492,,,0.0636,,
N45V,0.0719,0.071,0.0842,,0.0615,0.0693,0.064,,0.0697,0.0654,0.0564,,,0.0655,0.0778,0.0751,0.0611,0.0505,0.0747
N45H,0.0599,0.0604,,0.0543,0.0575,0.09,0.0625,0.0587,0.0565,0.0649,0.0672,0.0555,0.0597,0.0566,0.0428,0.0547,,0.0681,
G39Q,0.0437,0.0355,,,0.0408,0.0236,0.0444,0.0464,0.0414,0.0397,0.0443,,0.0424,0.0446,0.0473,0.0454,,,0.0546
H29R,0.118,0.0894,0.0811,0.0978,0.0814,0.111,,0.107,0.0655,0.0654,0.0406,,0.104,0.0995,0.105,,0.0661,,
H29L,0.133,0.115,0.153,0.113,0.107,0.112,0.0948,0.139,0.122,0.12,0.0869,0.165,0.123,0.0911,0.137,0.113,0.0961,,
